About 10 (0.005%) of roughly 200,000 compounds were called active. Inconclusive results, whose numbers are uncertain, are shown with a selection of clear calls. The call rests on the fitted dose curve; in most records, active means well fitted inhibition curve with a large enough effect; inconclusive means small, poorly fitted or top-dose-only effect, or effect the other way, or another doubt; inactive means no such curve, though single readings can be large or run the other way. No potency is given beside an inconclusive call; the fits are too rough.
Biological target: Lysosomal alpha-glucosidase (Homo sapiens) (UniProt P10253)
Test: qHTS Assay for Inhibitors of Human alpha-Glucosidase as a Potential Chaperone Treatment of Pompe Disease;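 on activity change, negative = inhibition: plate controls were uninhibited enzyme wells for no effect and no-enzyme background for full effect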
Settings: purified human GAA, 4-MU-alpha-glucoside fluorescence; activity change, negative = inhibition: at 76.9 µM (top of the series) unless noted
In short: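 Read-out is 4-methylumbelliferone fluorescence (Ex 365/Em 440 nm) after NaOH/glycine stop at pH 10. Enzyme 4 nM, substrate 400 uM, pH 5.0 citrate buffer, 20 min room temperature; AC50 from Hill-equation concentration-response.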
Potency means the concentration at half of the fitted maximal effect; tags describe the fitted curve by direction and shape.

SMILES | Potency | activity change, negative = inhibition
Cc1c(NC(=O)C(=O)/C=C(\O)c2ccc(Br)cc2)c(=O)n(-c2ccccc2)n1C | inconclusive [inhibitor, full curve] | –
O=C(Cn1nnc2ccccc21)N/N=C/c1ccco1 | inconclusive [inhibitor, single point] | –
CCOC(=O)c1cc(-c2cccc(C(F)(F)F)c2)nc2nc(SC)[nH]c(=O)c12 | inconclusive [activator, single point] | –
CCC1C(=O)N=C(SCC(=O)NC2CCCCC2)NC1=O (configuration not stated) | inconclusive [inhibitor, full curve, poor fit] | –
N#CCCN1CCN(C2=NC(=O)/C(=C\c3cccs3)S2)CC1 | inconclusive [inhibitor, single point] | –
CCN(CC)CCC(C)OC(=O)c1ccc(O)cc1O (configuration not stated) | – | inconclusive: 10.6% [activator]
COc1ccc(CN2C(=O)N(c3ccc(OC)cc3)C(=O)C2CC(=O)Nc2ccccc2)cc1 (configuration not stated) | inconclusive [inhibitor, single point] | –
Nn1c(COc2cccc(Cl)c2)nc2ccccc2c1=O | inconclusive [inhibitor, single point] | –
Cc1cc(N2CCN(C)CC2)nc2ccc(NC(=S)NCCCN3CCN(C)CC3)cc12 | inconclusive [inhibitor, full curve, poor fit] | –
COc1ccc(NC(=O)CSc2nnc(Cn3c(=O)sc4ccccc43)n2C)cc1OC | inconclusive [inhibitor, full curve, poor fit] | –
COc1ccccc1C(=O)C1CCCN(C(=O)Nc2ccccc2F)C1 (configuration not stated) | inconclusive [inhibitor, single point] | –
Cc1nc2ccc(-c3nc4ccc(N)cc4[nH]3)cc2[nH]1 | inconclusive [activator, single point] | –
COc1cc(N=Nc2cccc(S(N)(=O)=O)c2)c2ccccc2c1N | inconclusive [inhibitor, full curve, poor fit] | –
O=C(CSc1nnc(-c2cccs2)o1)c1cccs1 | inconclusive [inhibitor, full curve, poor fit] | –
CCCCOC(=O)c1ccc(NC(=O)Nc2ccc(OC)c(OC)c2)cc1 | inconclusive [inhibitor, full curve] | –
COc1cc(C(=O)NCCc2cn3ccc(C)cc3n2)cc(OC)c1OC | inconclusive [inhibitor, partial curve] | –
COC(=O)Nc1ccc(S(=O)(=O)N2c3ccccc3CCC2C)cc1 (configuration not stated) | inconclusive [inhibitor, single point] | –
COc1ccc2cc3cc(C(=O)NCc4ccco4)oc3nc2c1 | inconclusive [activator, partial curve] | –
CC(C)C(O)(C#CCN1CCCCCC1)c1ccccc1 (configuration not stated) | – | inconclusive: 12.6% [activator]
COc1cccc(C2CC(c3ccc(Cl)cc3)n3nc(N)nc3N2)c1 (configuration not stated) | inconclusive [inhibitor, single point] | –
O=C1COc2ccc(C(=O)COC(=O)CCc3ccc(S(=O)(=O)N4CCOCC4)cc3)cc2N1 | inconclusive [inhibitor, partial curve] | –
CCOP(=O)(OCC)C(NC(=O)c1cccs1)C(F)(F)F (configuration not stated) | inconclusive [activator, partial curve] | –
Cc1cc(=O)[nH]c2c(C)c(Cl)ccc12 | – | inactive: 0.049% [at 15.4 µM]

SMILES | Potency | activity change, negative = inhibition
Cc1ccc(NC(=O)CS(=O)CC(=O)N(C(C)C(=O)NC2CCCCC2)C(C)(C)C)cc1 (configuration not stated) | – | inconclusive: 12.7% [activator]
Cc1nc2cc(NC(=O)NC3CC3)ccc2n1C | – | inconclusive: 15.8% [activator]
COc1ccc2[nH]c3c(=O)n(/N=C/[C@H]4C(C)C=C(C)CC4C)c(=O)[nH]c3c2c1 (some centres not stated) | inconclusive [activator, single point] | –
CCc1cccc2c(C(=S)N3CCOCC3)c[nH]c12 | – | inconclusive: 14.8% [activator]
Cc1nc2cc(N=NC3=C(O)CCCC3=O)ccc2s1 | inconclusive [inhibitor, single point] | –
COc1ccc(S(=O)(=O)NCCOc2ccccc2)cc1C | – | inconclusive: 17% [activator]
O=C(NC1C=CS(=O)(=O)C1)c1ccccc1 (configuration not stated) | – | inconclusive: 17.8% [activator]
O=S(=O)(c1ccc(-c2nnc(SCc3nnc(-c4ccccc4)o3)o2)cc1)N1CCCC1 | inconclusive [inhibitor, single point] | –
COc1ccc(OC)c(-n2c(-c3cc(-c4ccccc4)n[nH]3)n[nH]c2=S)c1 | inconclusive [inhibitor, partial curve] | –
Cc1c(C(=O)O)oc2c(F)cccc12 | – | inconclusive: -16.3% [inhibitor]
COc1ccc(OC)c(C(c2nnnn2Cc2ccco2)N2CCN(C)CC2)c1 (configuration not stated) | – | inconclusive: 16.6% [activator]
Cc1ccc([N+](=O)[O-])cc1-c1[nH]c(-c2ccc(O)c(O)c2)nc1-c1ccccc1 | – | inactive: -14.1%
O=C(C(NS(=O)(=O)c1cccs1)c1ccccc1)N1CCN(c2ccccc2F)CC1 (configuration not stated) | – | inconclusive: -15.7% [inhibitor]
O=C(Oc1cccc(Nc2ncnc3ccccc23)c1)c1cccnc1 | – | inconclusive: 13.3% [activator]
Cc1ccc(C)c(NC2=NCC(=O)N2C2CCCCC2)c1 | inconclusive [inhibitor, single point] | –
C/C(=C\C(=O)c1ccc(C)o1)Nc1ccc2c(c1)OCO2 | – | inactive: 3.11%
COc1ccc(CCNC(=O)CN(c2ccc(OC)cc2)S(C)(=O)=O)cc1 | – | inconclusive: 12.3% [activator]
CCc1ccccc1NC(=S)N=Nc1c(O)n(C)c2ccc(S(=O)(=O)N3CCOCC3)cc12 | inconclusive [inhibitor, partial curve] | –
Cc1noc(C)c1CSc1ncnc2sc3c(c12)CCC3 | – | inconclusive: -15.5% [inhibitor]
CCOC(=O)c1cc2c(=O)n3ccccc3nc2n(CCOC)c1=NC(=O)c1c(-c2c(F)cccc2Cl)noc1C | inconclusive [activator, single point] | –
Cc1oc(-c2ccccc2F)nc1CS(=O)(=O)CC(=O)NCCCc1ccccc1 | inconclusive [inhibitor, partial curve, poor fit] | –
CCOC(=O)C1(Cc2ccccc2C(F)(F)F)CCN(C2CCC2)CC1 | – | inconclusive: 11.8% [activator]
C=CCn1c(=NC(=O)c2ccc(S(=O)(=O)N3CCCC3)cc2)sc2cc(NC(C)=O)ccc21 | – | inconclusive: 60.1% [activator]

SMILES | Potency | activity change, negative = inhibition
O=C1CCCc2[nH]c(-c3ccccc3)nc21 | – | inconclusive: 14.5% [activator]
CC(=O)c1ccc(NC(=S)NC(C)CCc2ccccc2)cc1 (configuration not stated) | inconclusive [inhibitor, partial curve] | –
Cn1cc(C(=O)NCc2cccnc2)c(=O)c2cc(S(=O)(=O)N3CCCCCC3)ccc21 | inconclusive [inhibitor, single point] | –
COc1ccc(COC(=O)N/C=C/c2ccco2)cc1 | inconclusive [inhibitor, partial curve, poor fit] | –
O=C(Cn1c2[n+](c3ccccc31)CC(O)CS2)c1ccccc1 (configuration not stated) | – | inconclusive: 4.79% [activator]
CC12CN3CC(C)(CN(C1)C3c1ccc3ccccc3c1O)C2=O (configuration not stated) | – | inactive: -4.9%
CC(NCc1ccc(S(N)(=O)=O)cc1)C(=O)Nc1cc([N+](=O)[O-])ccc1Cl (configuration not stated) | inconclusive [inhibitor, single point] | –
CC(Oc1cccc(NC(=O)c2cccs2)c1)C(=O)c1ccccc1 (configuration not stated) | – | inconclusive: 6.22% [activator]
Cc1c(N=Cc2ccncc2)c(=O)n(-c2ccccc2)n1C | – | inactive: 6.6%
O=C(Cn1c(C(F)(F)F)nc2ccccc21)NCCCN1CCOCC1 | inconclusive [inhibitor, full curve, poor fit] | –
CCOC(=O)c1cnc(-c2ccccc2)nc1N1CC(C)OC(C)C1 (configuration not stated) | inconclusive [inhibitor, single point] | –
Cc1ccc2cc(N)ccc2n1 | – | inconclusive: 17.5% [activator]
Cc1ccc(-c2nn(-c3cccc(F)c3)cc2CNCCc2ccncc2)o1 | – | inactive: -3.04%
CCOc1ccc(Nc2nc3cc(S(=O)(=O)N(CC)CC)ccc3o2)cc1 | inconclusive [inhibitor, partial curve, poor fit] | –
CC1SC(c2ccc(Cl)cc2Cl)NC1=O (configuration not stated) | inconclusive [inhibitor, single point] | –
COc1cc(C2SCC(=O)N2CCN2CCCCC2)ccc1O (configuration not stated) | – | inconclusive: 9.53% [activator]
CCCOc1ccc(N2C(=O)CC(N(O)c3ccccc3)C2=O)cc1 (configuration not stated) | – | inactive: 9.17%
O=C(C1=NN[C@@H]2C(=O)N(c3cccc(C(F)(F)F)c3)C(=O)[C@H]12)C(c1ccccc1)c1ccccc1 | inconclusive [inhibitor, single point] | –
Cc1ccccc1N=C1NN=C(c2ccccc2F)CS1 | inconclusive [inhibitor, single point] | –
O=C(c1ccc(Cl)cc1)N(Cc1ccccc1F)N1C(=O)CCCC1=O | inconclusive [inhibitor, single point] | –
O=C1Nc2ccccc2S/C1=C\C(=O)N1CCCC1 | – | inactive: -1.62%
